Some of the results follow.

The experiment concerns the target T1, MBP-FoxP1dN (Mus musculus, UniProt P58462 326-579).
T1 sequence: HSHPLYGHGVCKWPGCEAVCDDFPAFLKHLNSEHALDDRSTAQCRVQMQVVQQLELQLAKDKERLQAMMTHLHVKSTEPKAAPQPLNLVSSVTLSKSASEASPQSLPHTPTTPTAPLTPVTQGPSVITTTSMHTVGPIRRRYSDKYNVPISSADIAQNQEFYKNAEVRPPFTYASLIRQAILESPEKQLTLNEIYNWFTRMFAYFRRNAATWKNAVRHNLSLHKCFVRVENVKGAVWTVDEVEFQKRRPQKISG
In words: PD-seq (MBP pull-down with sequencing); 20 mM Tris-HCl pH 7.5, 100 mM NaCl, 1.5 mM MgCl2, 0.4 uM protein, 0.1 uM dsDNA library, 30 min, room temperature, amylose pull-down; high values mean tight binding. The conditions noted are these: protein: recombinant; tags: His6-MBP; chain copies: 2; dsDNA, one strand shown. The method, boiled down: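 Mouse FoxP3 or FoxP1 fragment lacking the N-terminus, His6-MBP-tagged and expressed in E. coli, was incubated at 0.4 µM with 0.1 µM Klenow-filled degenerate double-stranded DNA library for 30 min at room temperature in Tris pH 7.5 buffer with NaCl and MgCl2. Complexes captured on amylose resin were washed three times and their DNA sequenced on Illumina. Binding is reads-per-million enrichment of pull-down over input, replicates pooled.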
As for “GATGATTGTTCTCCCAGCTGATGAATTATACGAATCGAGTAAACAAATTTTCCTAATCTTTCTGTTCAAGCGCCATCTAC”, the binding signal was 1.06 RPM ratio (pull-down/input). The result for “GATGATTGTTCTCCCAGCTGATGAATTTCGATCTTCGAGTAAACAAATTTTCCTAATCTTTCTGTTCAAGCGCCATCTAC” reads 0.828 RPM ratio (pull-down/input); that for “GATGATTGTTCTCCCAGCTGATGAATTACGCACTTCGAGTAAACAAATTTTCCTAATCTTTCTGTTCAAGCGCCATCTAC”, 1.12 RPM ratio (pull-down/input). Then “GATGATTGTTCTCCCAGCTGATGAATTCCCCACATCGAGTAAACAAATTTTCCTAATCTTTCTGTTCAAGCGCCATCTAC”, with 0.96 RPM ratio (pull-down/input); and “GATGATTGTTCTCCCAGCTGATGAATTGGTTGTGTCGAGTAAACAAATTTTCCTAATCTTTCTGTTCAAGCGCCATCTAC”, with 1.2 RPM ratio (pull-down/input). On to “GATGATTGTTCTCCCAGCTGATGAATTGCGTTCGTCGAGTAAACAAATTTTCCTAATCTTTCTGTTCAAGCGCCATCTAC”, for which the binding signal is 1.05 RPM ratio (pull-down/input). The result for “GATGATTGTTCTCCCAGCTGATGAATTGCAGACATCGAGTAAACAAATTTTCCTAATCTTTCTGTTCAAGCGCCATCTAC” reads 1.21 RPM ratio (pull-down/input). Consider “GATGATTGTTCTCCCAGCTGATGAATTCGTCGAGTCGAGTAAACAAATTTTCCTAATCTTTCTGTTCAAGCGCCATCTAC”, for which the binding signal is 0.793 RPM ratio (pull-down/input).

On to “GATGATTGTTCTCCCAGCTGATGAATTGCAGGATTCGAGTAAACAAATTTTCCTAATCTTTCTGTTCAAGCGCCATCTAC”, for which the binding signal is 1.1 RPM ratio (pull-down/input). Then “GATGATTGTTCTCCCAGCTGATGAATTAGTTCCTTCGAGTAAACAAATTTTCCTAATCTTTCTGTTCAAGCGCCATCTAC”, with 0.948 RPM ratio (pull-down/input); and “GATGATTGTTCTCCCAGCTGATGAATTTGCGTCGTCGAGTAAACAAATTTTCCTAATCTTTCTGTTCAAGCGCCATCTAC”, with 1.08 RPM ratio (pull-down/input). Take “GATGATTGTTCTCCCAGCTGATGAATTATAACGGTCGAGTAAACAAATTTTCCTAATCTTTCTGTTCAAGCGCCATCTAC”: the binding signal was 1.02 RPM ratio (pull-down/input). Then “GATGATTGTTCTCCCAGCTGATGAATTAGGCAGTTCGAGTAAACAAATTTTCCTAATCTTTCTGTTCAAGCGCCATCTAC”, with 0.819 RPM ratio (pull-down/input). On to “GATGATTGTTCTCCCAGCTGATGAATTAATTGAGTCGAGTAAACAAATTTTCCTAATCTTTCTGTTCAAGCGCCATCTAC”, for which the binding signal is 0.932 RPM ratio (pull-down/input).

Regarding “GATGATTGTTCTCCCAGCTGATGAATTCGAGAAATCGAGTAAACAAATTTTCCTAATCTTTCTGTTCAAGCGCCATCTAC”, the binding signal is 0.923 RPM ratio (pull-down/input). Then “GATGATTGTTCTCCCAGCTGATGAATTTGCAAATTCGAGTAAACAAATTTTCCTAATCTTTCTGTTCAAGCGCCATCTAC”, with 1.07 RPM ratio (pull-down/input).

Take “GATGATTGTTCTCCCAGCTGATGAATTTATGGGTTCGAGTAAACAAATTTTCCTAATCTTTCTGTTCAAGCGCCATCTAC”: the binding signal is 1.06 RPM ratio (pull-down/input). As for “GATGATTGTTCTCCCAGCTGATGAATTGCAGCAGTCGAGTAAACAAATTTTCCTAATCTTTCTGTTCAAGCGCCATCTAC”, the binding signal was 1.04 RPM ratio (pull-down/input). As to “GATGATTGTTCTCCCAGCTGATGAATTGACGCCATCGAGTAAACAAATTTTCCTAATCTTTCTGTTCAAGCGCCATCTAC”, the binding signal was 1.24 RPM ratio (pull-down/input). In the case of “GATGATTGTTCTCCCAGCTGATGAATTGAAAGTGTCGAGTAAACAAATTTTCCTAATCTTTCTGTTCAAGCGCCATCTAC”, the binding signal is 0.883 RPM ratio (pull-down/input).

Take “GATGATTGTTCTCCCAGCTGATGAATTTCCTATATCGAGTAAACAAATTTTCCTAATCTTTCTGTTCAAGCGCCATCTAC”: the binding signal was 0.903 RPM ratio (pull-down/input). As for “GATGATTGTTCTCCCAGCTGATGAATTATTCCTTTCGAGTAAACAAATTTTCCTAATCTTTCTGTTCAAGCGCCATCTAC”, the binding signal is 1.01 RPM ratio (pull-down/input).

On to “GATGATTGTTCTCCCAGCTGATGAATTGGCCATTTCGAGTAAACAAATTTTCCTAATCTTTCTGTTCAAGCGCCATCTAC”, for which the binding signal is 0.857 RPM ratio (pull-down/input).

For the sequence “GATGATTGTTCTCCCAGCTGATGAATTATTAAGGTCGAGTAAACAAATTTTCCTAATCTTTCTGTTCAAGCGCCATCTAC”, the binding signal is 1.05 RPM ratio (pull-down/input).

With “GATGATTGTTCTCCCAGCTGATGAATTACCCATGTCGAGTAAACAAATTTTCCTAATCTTTCTGTTCAAGCGCCATCTAC”, the binding signal was 0.942 RPM ratio (pull-down/input).

“GATGATTGTTCTCCCAGCTGATGAATTGTTAGCGTCGAGTAAACAAATTTTCCTAATCTTTCTGTTCAAGCGCCATCTAC”: the binding signal is 1.26 RPM ratio (pull-down/input). The result for “GATGATTGTTCTCCCAGCTGATGAATTCTGGACCTCGAGTAAACAAATTTTCCTAATCTTTCTGTTCAAGCGCCATCTAC” reads 0.712 RPM ratio (pull-down/input). Then “GATGATTGTTCTCCCAGCTGATGAATTAAACTTCTCGAGTAAACAAATTTTCCTAATCTTTCTGTTCAAGCGCCATCTAC”, with 0.857 RPM ratio (pull-down/input); and “GATGATTGTTCTCCCAGCTGATGAATTAAGCCGTTCGAGTAAACAAATTTTCCTAATCTTTCTGTTCAAGCGCCATCTAC”, with 0.953 RPM ratio (pull-down/input); and “GATGATTGTTCTCCCAGCTGATGAATTCGATAAATCGAGTAAACAAATTTTCCTAATCTTTCTGTTCAAGCGCCATCTAC”, with 1.13 RPM ratio (pull-down/input). With “GATGATTGTTCTCCCAGCTGATGAATTATAATCGTCGAGTAAACAAATTTTCCTAATCTTTCTGTTCAAGCGCCATCTAC”, the binding signal is 1.06 RPM ratio (pull-down/input).

These data come from publication PMC12820563, “FoxP3 forms a head-to-head dimer in vivo and stabilizes its multimerization on adjacent microsatellites”.
